Data taken from the supplement of paper PMC3334620.
In all, about 33,000 sequences were measured (“E-score (-0.5 to 0.5)”: median about -0.012, highest 2% from about 0.29 on). The list shows a part of the results.

Biological target: T1, Ybr033w (UniProt P38073)
T1 sequence: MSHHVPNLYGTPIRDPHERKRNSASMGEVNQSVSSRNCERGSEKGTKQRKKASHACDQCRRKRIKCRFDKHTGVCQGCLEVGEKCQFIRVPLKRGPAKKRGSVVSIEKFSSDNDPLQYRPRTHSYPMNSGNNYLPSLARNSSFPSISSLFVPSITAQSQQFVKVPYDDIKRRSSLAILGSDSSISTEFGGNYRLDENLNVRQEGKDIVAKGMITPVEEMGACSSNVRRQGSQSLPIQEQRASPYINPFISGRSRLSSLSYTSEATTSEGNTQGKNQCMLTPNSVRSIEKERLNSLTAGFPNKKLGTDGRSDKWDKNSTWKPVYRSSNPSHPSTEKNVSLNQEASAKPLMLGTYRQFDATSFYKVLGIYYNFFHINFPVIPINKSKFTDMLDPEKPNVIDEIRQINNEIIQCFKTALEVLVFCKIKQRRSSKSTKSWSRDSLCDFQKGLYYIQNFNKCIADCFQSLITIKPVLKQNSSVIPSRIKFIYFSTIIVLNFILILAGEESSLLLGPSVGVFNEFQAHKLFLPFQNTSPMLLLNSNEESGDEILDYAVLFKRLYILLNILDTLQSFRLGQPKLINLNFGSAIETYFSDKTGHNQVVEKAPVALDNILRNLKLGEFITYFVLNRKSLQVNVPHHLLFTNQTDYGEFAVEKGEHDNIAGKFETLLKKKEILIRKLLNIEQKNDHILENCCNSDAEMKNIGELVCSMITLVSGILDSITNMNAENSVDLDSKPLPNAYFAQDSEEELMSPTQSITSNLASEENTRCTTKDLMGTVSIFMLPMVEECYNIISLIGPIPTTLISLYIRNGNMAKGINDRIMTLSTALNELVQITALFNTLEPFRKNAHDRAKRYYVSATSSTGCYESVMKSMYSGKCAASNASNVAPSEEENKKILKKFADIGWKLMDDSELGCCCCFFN
Experiment: PBM E-score (8-mer binding enrichment) (E-score (-0.5 to 0.5)); higher = stronger / more preferred TF binding; most listed sequences are background and not binding sites
Settings: protein concentration: 200 nM; construct: GST-full length
Description: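 Universal 'all 10-mer' protein binding microarrays (Agilent AMADID 015681) probed with GST-tagged S. cerevisiae TFs (full-length or DBD) made by in vitro transcription/translation (PURExpress), about 100-200 nM. Bound TF was detected with fluorescent anti-GST. Each ungapped 8-mer (which stands for itself and its reverse complement) is scored by the PBM enrichment score (E-score), a modified Wilcoxon-Mann-Whitney statistic from -0.5 to +0.5, computed with the Universal PBM Analysis Suite. Scale: above 0.35 generally sequence-specific binding.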

Sequence | PBM E-score
GCCTAGCA | -0.18
ACTGCAAC | -0.0427
GACATGTA | 0.217
AAATGCCT | -0.0175
CATCTAAA | 0.156
CTCGGGCC | -0.182
CAATGGAC | -0.0269
ACTTAACT | 0.163
CTGGGCTC | -0.0988
GAGCGAAA | 0.174
CGAGTCCA | -0.186
CCCAGACC | -0.285
ACCACAAC | 0.175
ATTTAGCG | 0.0784
GACTGCTA | -0.0825
CCGCCCAG | -0.208
ACTGCATA | 0.0795
CACACTAA | 0.299
AAGGGTGA | -0.162
CCGTCTCC | -0.0669
CAGGAGCG | -0.0857
GTGAGCGA | -0.109
AGGCTGAA | -0.068
GACCGTGC | -0.265
AGAGACCC | -0.153

Sequence | PBM E-score
ACTCGTAT | 0.21
CAGGCATA | -0.183
GATAGCAC | -0.101
GACTGCTC | -0.206
TCCCACCA | -0.203
GAAGCCGC | -0.225
CGGAACAG | 0.127
AAGTACGA | 0.00485
GGGACGGA | -0.252
AGTGCTCC | -0.213
CGAACCAC | -0.13
AACCGATT | 0.0995
GTAAATCA | 0.225
AAAATGTT | 0.224
GCTGGACC | -0.178
GAGTAATC | 0.132
ATGTATCA | 0.193
AGAATCAG | 0.0763
ACAGTAAA | 0.178
AAGGGCAG | -0.151
CGACTTAC | -0.0431
GGATTGGA | 0.128
GGCAATTA | 0.182
GAGTGACC | -0.142
ACGAGTGC | -0.0558

Sequence | PBM E-score
ACTAAACC | 0.033
CCCACCTA | -0.215
ATCGGCTA | -0.00877
TATAACGA | 0.157
CAGAATCC | 0.0131
CCGTTGAA | -0.0738
CATATAGC | 0.119
CGCCACCA | -0.206
ATGGTTAC | 0.142
GCGTAACC | -0.195
GTCGCCAC | -0.25
AAGTAAAC | 0.146
ATGGATAC | 0.106
AAACAAAG | 0.118
TCTGGTAA | 0.133
CCACACCA | 0.109
GAGAGGCA | -0.245
AGGCACCG | -0.199
AGAACTCT | 0.0753
GTACCGAC | -0.275
CGTGGCAA | -0.182
TCATTTAA | 0.121
CGATAGTC | 0.0638
ATACCGGC | -0.0263
CTGTTTAA | 0.145

Sequence | PBM E-score
AATCGCAA | 0.186
TAAGCTAA | 0.16
AGTACGGG | -0.0131
CACATCTG | -0.129
CTTTCGGC | -0.167
CCTTCGTA | -0.0832
CTCTTCCA | 0.0449
ACATTATA | 0.148
GCTAATAC | 0.146
CACGGGGA | -0.121
ATTACAAG | 0.18
GACAAGTC | -0.0919
ATGAATCA | 0.147
ATAACGGG | 0.0594
TTGATAAA | 0.368
CCGTATCA | -0.107
CAGCGAAA | -0.0299
AGGACGCC | -0.202
CTAATCAA | 0.23
CGTCTAAC | -0.142
ATTAAGGC | 0.147
CACTTTAC | 0.122
ATGGGGTG | -0.195
GGTTACGA | -0.0794
GTGGCCTA | -0.276

Sequence | PBM E-score
CCCTTTCA | -0.19
GGTCCCAC | -0.279
GGGTGGCA | -0.141
CCAGGCGG | -0.17
CGACCCGA | -0.239
AAGAATGT | 0.104
AGACGCGC | -0.107
AGGTCGAA | -0.168
CTGCAGGA | 0.103
CATACACG | 0.0375
CCATAAAC | -0.0866
GTAAGCGA | 0.145
AGGCGGTA | -0.204
CGAGCTCA | -0.192
CAGGTAAG | -0.121
AATAGCGT | 0.216
GAATGACA | 0.0228
TCCGAGAA | 0.142
ATTGCATA | 0.202
ATGATGCA | 0.146
AACACGAG | -0.00719
CCGCAGAG | -0.281
AAGCATGG | -0.18
ACACAAAT | 0.185
AGCTAACC | -0.123

Sequence | PBM E-score
ACTGATAT | 0.0341
CGCTACCC | -0.0713
CAACACTG | -0.031
CGGCGATA | 0.048
AGTACAAA | 0.114
CGTTCAGA | -0.0779
AAACTGCC | 0.151
CGATAACA | 0.154
GCTACACC | -0.2
ACACGCGG | -0.012
ATATAGCA | 0.138
CAAACCAA | 0.0461
ACATGTAG | 0.194
GCCTGGAA | 0.009
GATCGGAC | 0.129
GTTACCCA | -0.119
AGGTGGTC | -0.117
ATATGCAC | 0.183
ATCGTTGG | 0.211
AAGTATCA | 0.209
GCGATAGA | 0.00283
ACCTGAGG | -0.0879
AAGATTAC | 0.101
CCGCGAAA | -0.0982
CAAAGCTA | 0.185

Sequence | PBM E-score
ACGCCAAA | -0.0683
ACTTAATA | 0.271
AGCCGTGC | -0.216
GGATTGAC | -0.00155
CCACACGG | -0.277
ATGCGGAA | 0.231
GTCGTACA | 0.184
GAGATTTA | 0.0395
CGGCACAG | -0.0198
AACACTAC | 0.181
CACTATGC | 0.136
AGAATCGC | 0.0743
GACGATAA | 0.00917
AGCGGCAT | 0.0383
CTTAATGA | -0.0192
AAATTTAT | 0.228
CCGACTAG | -0.146
TTCACCAA | 0.086
GCATTTCC | 0.0973
GTCCAGGA | -0.0504
AATCACGG | 0.24
GATCTTCC | 0.33
